Laboratory results: PubChem BioAssay AID720542 (National Center for Advancing Translational Sciences (NCATS), 2013)
About 740 (0.21%) of roughly 360,000 compounds were called active. Inconclusive means that the source gave no clear call. Such entries were picked first, then a sample of the others. Calls come from the whole dose curve; as a rule, active = well fitted inhibition curve with a large enough effect; inconclusive = small, poorly fitted or top-dose-only effect; inactive = no such curve, though single readings can be large or run the other way. Potencies of inconclusive entries are left out as doubtful fits.

Tested on: Plasmodium falciparum AMA1 (3D7) - RON2 peptide interaction
Experiment: qHTS for Inhibitors of AMA1-RON; Towards Development of Antimalarial Drug Lead: Primary Screen; note: nearly all actives have a fitted effect of over 45% in size
Conditions: AlphaScreen AMA1-biotinylated RON2 peptide binding; series mostly up to 58.2 µM
In short: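 AMA1 (3D7) with his tag at 25 nM final met compounds first, then biotinylated RON2 peptide at 25 nM; detection used donor plus acceptor beads, 10 µg/mL apiece, read by AlphaScreen after 30 min at room temperature.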
Potency is the fitted concentration of half-maximal effect; tags give direction and shape of the fitted curve.

Structure (SMILES)	Potency
CC(=O)N1/C(=C/c2ccc(N(C)C)cc2)C(=O)c2ccccc21	active: 28.2 µM
Brc1cccc(CNCCc2ccc3c(c2)OCO3)c1	inconclusive [inhibitor, partial curve]
CN1C=C/C(=C\c2cc[n+](C)c3ccccc23)c2ccccc21	inactive
COc1cc(CSC)nc(-c2ccccc2)n1	inconclusive [inhibitor, partial curve]
CC1CCCCN1C(=O)CSc1nc(N)nc(N)n1 (stereo not given)	inactive
COc1ccc(N2CCN(C(=O)Cc3coc4cc(C)ccc34)CC2)cc1	inconclusive [inhibitor, single point]
CC1CCN(c2oc(-c3ccco3)nc2S(=O)(=O)c2ccccc2)CC1	inconclusive [inhibitor, single point]
C(=N\N1CCN(Cc2cccc3ccccc23)CC1)/c1cccs1	inconclusive [inhibitor, partial curve, poor fit]
COc1ccc(Cn2c(=O)[nH]c3cc(C(=O)NCc4ccc5c(c4)OCO5)ccc3c2=O)cc1	inconclusive [inhibitor, partial curve]
COc1ccc(CCNC(=O)CSc2cn(Cc3ccccc3)c3ccccc23)cc1OC	inactive
CCn1c(O)c(N=NC(=O)CNc2ccc(C)cc2)c2ccccc21	inconclusive [inhibitor, single point]
COc1ccc(OC)c(-c2csc(N(Cc3ccco3)C(=O)c3cccs3)n2)c1	inconclusive [inhibitor, full curve, poor fit]
CN(C)c1ccc(NC(=O)CSc2nc(N)c(C(=O)Nc3ccc(N(C)C)cc3)s2)cc1	inconclusive [inhibitor, full curve]
CN(C)c1ccc(C(CNS(=O)(=O)c2ccc(F)cc2)c2c[nH]c3ccccc23)cc1 (stereo not given)	inconclusive [inhibitor, partial curve]
Fc1ccc(-c2csc(N3CCSCC3)n2)cc1	inconclusive [inhibitor, single point]
O=S(=O)(c1ccc2ccccc2c1)N1CCN(C2Cc3ccccc3C2)CC1	inconclusive [inhibitor, single point]
CCc1nnc(SCCSc2nnc(CC)n2N)n1N	inactive
CCOC(=O)c1cc2c(ccn2C)n1Cc1ccccc1C	inconclusive [inhibitor, partial curve]
O=[N+]([O-])c1ccc(Sc2ccc(Cl)c(Cl)c2)nc1	inconclusive [inhibitor, partial curve]
COc1ccc(C(c2nnnn2Cc2ccccc2)N2CCN(C/C=C/c3ccccc3)CC2)cc1 (stereo not given)	inconclusive [inhibitor, partial curve]
O=C(COc1ccc2ccccc2c1)N1CCN(CC2CC3C=CC2C3)CC1 (stereo not given)	inconclusive [inhibitor, single point]
CC1CN(CCOc2ccc(Cl)c(Cl)c2)CC(C)O1 (stereo not given)	inconclusive [inhibitor, single point]
CN(C)c1ccc(C(CNS(=O)(=O)c2ccc3ccccc3c2)N2CCOCC2)cc1 (stereo not given)	inconclusive [inhibitor, single point]
COc1ccc(OCc2cc(=O)c3ccc4c(c3o2)C=CC(C)(C)O4)cc1OC	inconclusive [inhibitor, partial curve]

Structure (SMILES)	Potency
O=[N+]([O-])c1ccccc1/C=C\C=N\N1CCN(c2ccccc2)CC1	inconclusive [inhibitor, partial curve, poor fit]
Cc1ccc2cc(NC(=O)c3ccc(C(C)(C)C)cc3)ccc2n1	inactive
CC1CCN(C(=S)c2ccc(-c3ccc(Cl)cc3Cl)o2)CC1	inconclusive [inhibitor, single point]
COc1ccc(-c2ccc(=O)n(CC(=O)Nc3ccc(C(=O)NC4CC4)cc3)n2)cc1OC	inactive
O=C1N[C@@H](Cc2ccccc2)C(=O)N2[C@H]1C[C@]1([C@]34C[C@H]5C(=O)N[C@@H](Cc6ccccc6)C(=O)N5[C@H]3N(S(=O)(=O)c3ccccc3)c3ccccc34)c3ccccc3N(S(=O)(=O)c3ccccc3)[C@H]21	inactive
O=C(O)c1cccc(N2C(=O)/C(=C/c3ccc(SCc4ccc(Cl)cc4)o3)SC2=S)c1	inconclusive [inhibitor, single point]
Fc1cccc(Cl)c1CSc1ccc(-c2ccco2)nn1	inconclusive [inhibitor, partial curve, poor fit]
CCCCNC(=O)COC(=O)c1ccc(C)c(NC(=O)c2ccco2)c1	inactive
O=C(C(c1ccccc1)c1ccccc1)N1CCN(Cc2ccco2)CC1	inconclusive [inhibitor, single point]
COc1ccc2[nH]c(=O)c(CN(Cc3nnnn3Cc3ccco3)C3CCCCC3)cc2c1	inconclusive [inhibitor, partial curve]
CCCOc1ccccc1N/C(N)=N/c1nc(C)cc(C)n1	inactive
O=C(CSC1=NCCN1)NC1CCCCCC1	inconclusive [inhibitor, single point]
COC(=O)C1=NN(c2ccccc2)C2(S1)SC(C(C)=O)=C(C)N2c1ccccc1 (stereo not given)	inconclusive [inhibitor, partial curve]
CCCN(CC1CC1)c1cc2c(c3c1ccn3C)C1CCC2C1 (stereo not given)	inconclusive [inhibitor, partial curve]
CCCSc1nc(N)nc2c1ncn2C1OC(CO)C(O)C1O (stereo not given)	inactive
CN(C)c1ccc(CNC(=O)C2Cc3c(-c4ccccc4Oc4ccccc4)ccnc3O2)cc1 (stereo not given)	active: 10 µM
CCc1ccc(OCCNC(=O)OCc2ccccc2)cc1	inconclusive [inhibitor, single point]
Cc1cc(N=Nc2ccc(Cl)cc2)cc(CN2CCOCC2)c1O	inconclusive [inhibitor, partial curve]
O=[N+]([O-])c1c(C(Cl)Cl)nn(-c2ccccc2)c1N1CCCC1	inconclusive [inhibitor, single point]
Cc1ccc(S(=O)(=O)n2cccc2/C=C/[N+](=O)[O-])cc1	inconclusive [inhibitor, partial curve]
CC1Cn2c(nc3sc4c(c3c2=O)CCC4)N1CCO (stereo not given)	inconclusive [inhibitor, partial curve]
COc1cc(C=c2c3ccccc3n3c2cc(-c2ccccc2)[n+]3C)cc(OC)c1OC	inconclusive [inhibitor, single point]
COC(=O)c1c(NC(=O)c2cccc([N+](=O)[O-])c2)sc(C(N)=O)c1C	inactive
Cc1cc(C)c(C(=O)COC(=O)c2ccc([N+](=O)[O-])o2)cc1C	inconclusive [inhibitor, partial curve]

Structure (SMILES)	Potency
Cn1c(=O)c2[nH]c(Cc3cccc(O)c3)nc2n(C)c1=O	inconclusive [inhibitor, partial curve]
COc1ccc(C(=O)COC(=O)c2ccco2)cc1	inactive
Cc1cccc(N2CC(C(=O)Nc3cccc(S(=O)(=O)N4CCCCC4)c3)CC2=O)c1C (stereo not given)	inactive
CCO/N=C(\N)c1[nH]ncc1Br	inactive
CS(=O)(=O)c1ccc2sc(NC(=O)c3cc4ccccc4o3)nc2c1	inactive
COc1cccc(-n2c(C)c3c(OC)cccc(=O)c3c2C)c1	inconclusive [inhibitor, partial curve]
COc1cccc(NC(=O)Cc2ccc(C)cc2)c1	inconclusive [inhibitor, single point]
C[C@H]1CN(S(=O)C(C)(C)C)[C@@H](CCO)/C1=C\CCO (stereo not given in full)	inactive
N#C/C(=C\c1cccc([N+](=O)[O-])c1)C(=O)NCc1ccc(Cl)cc1	inconclusive [inhibitor, partial curve]
O=C(NC(=S)N1CCN(c2ccc([N+](=O)[O-])cc2Cl)CC1)c1ccco1	inactive
O=C1C2C3C=CC(C4CC34)C2C(=O)N1/N=C/c1ccc(-c2cccc([N+](=O)[O-])c2)o1 (stereo not given)	inconclusive [inhibitor, partial curve, poor fit]
Cn1c(SCc2ccc([N+](=O)[O-])cc2)nnc1-c1cccnc1	inconclusive [inhibitor, full curve]
COc1cccc(/C(C)=N/N=C(\C)c2cccc(OC)c2)c1	inactive
O=C(N1CCN(S(=O)(=O)c2ccc(Cl)cc2)CC1)n1ccnc1	inconclusive [inhibitor, full curve, poor fit]
C/C=C(\C)c1nnc(NC(=O)C(C)C)s1	inactive
COc1cccc(-n2cnnc2SCC(=O)NC2CC2)c1	inactive
COc1ccc(N2CCN(c3oc(COc4ccccc4)nc3C#N)CC2)cc1	inconclusive [inhibitor, partial curve]
Cc1ccc(C=C2C(Cl)=C(Cl)C(Cl)=C2Cl)cc1	inconclusive [inhibitor, partial curve]
Cc1cccc(NC(=O)c2cc(-c3ccco3)nc3ccccc23)n1	inconclusive [inhibitor, partial curve]
CNc1nc(Nc2ccccc2)nc(OCC(F)(F)F)n1	inactive
Cc1cccc(Nc2cc(=O)[nH]c(=O)[nH]2)c1C	inactive
O=c1c2ccccc2c(/C=N/n2cnnc2)c(O)n1-c1ccccc1	inconclusive [inhibitor, single point]
